From PubChem BioAssay AID485344 (National Center for Advancing Translational Sciences (NCATS), 2010)
Hit rate of the full screen: of about 340,000 compounds, about 6,900 (2%) were called active. Rule as the data show it: active = inhibition above about 30%; inactive = below that, where a call was filed. The entries are a selection whose mix differs from that of the whole data set. The source gives no active or inactive call for entries shown without one. Peptide text beside a SMILES is read from it. * marks the point of attachment. Boc = CC(C)(C)OC(=O)*

What follows are compounds tested against D(2) dopamine receptor (Homo sapiens) (UniProt P14416) (assay: HTS Assay for Allosteric Antagonists of the Human D2 Dopamine Receptor: Primary Screen for Antagonists). Settings: HEK293 TREx D2 cells, calcium flux, dopamine EC80; at 10 µM; stronger effect = higher value.
Method in brief: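 Overnight-induced (tetracycline, 30 C) HEK293 T-REx cells carrying force-coupled D2 receive a no-wash calcium dye, then compound, then EC80 dopamine at 180 s; signals are read kinetically throughout.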
Also: 0% is about no effect.

Sequence of UniProt P14416 (P14416 whole entry, looked up): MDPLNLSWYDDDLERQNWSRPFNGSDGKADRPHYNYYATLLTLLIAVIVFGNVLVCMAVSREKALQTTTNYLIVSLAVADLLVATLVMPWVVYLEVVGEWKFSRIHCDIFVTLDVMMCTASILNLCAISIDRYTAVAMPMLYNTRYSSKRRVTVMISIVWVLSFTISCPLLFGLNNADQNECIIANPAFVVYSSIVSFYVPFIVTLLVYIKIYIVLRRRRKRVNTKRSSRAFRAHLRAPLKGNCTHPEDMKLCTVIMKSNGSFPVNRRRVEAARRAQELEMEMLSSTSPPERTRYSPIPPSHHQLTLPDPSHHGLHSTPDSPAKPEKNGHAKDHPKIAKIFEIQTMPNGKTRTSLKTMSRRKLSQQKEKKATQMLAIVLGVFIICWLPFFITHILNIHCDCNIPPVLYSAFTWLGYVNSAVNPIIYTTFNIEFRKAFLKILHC

| SMILES | inhibition |
| --- | --- |
| CCOc1ccc(NC(=O)CCS(=O)(=O)c2ccc3nc(C)sc3c2)cc1 | -4.25% |
| c1coc(-c2nc3ccccn3c2Nc2ccc3c(c2)OCCO3)c1 | -10% |
| COc1cc(Cl)c(C)cc1NC(=O)c1cnn(-c2ccc(C)cc2)c1-n1cccc1 | -6.02% |
| COc1ccc(OC)c(S(=O)(=O)Nc2cc3c(C(C)=O)c(C)oc3c3ccccc23)c1 | 8.39% |
| COC(=O)c1c(NC(=O)COc2cc(C)c(Cl)c(C)c2)sc2c1CCCC2 | 2.75% |
| COc1cccc(C2CC(=O)Nc3c2c(=O)n(C)c2ncnn32)c1OC (centres undefined) | 7.17% |
| COc1ccc(-c2nnc(SCC(=O)Nc3ccc(C(C)=O)cc3)nc2-c2ccc(OC)cc2)cc1 | -21.2% |
| CCOc1ccc(NS(=O)(=O)c2ccc3c(c2)CCN3C(C)=O)cc1 | 4.55% |
| Cc1ccc(OCC(=O)N(Cc2ccco2)C2CCS(=O)(=O)C2)cc1 (centres undefined) | 26.3% |
| Cc1ccc(S(=O)(=O)NCC2CCC(C(=O)N(C)Cc3ccccc3)CC2)cc1 (centres undefined) | 10.5% |
| CC(Oc1ccc(F)cc1)C(=O)Nc1cc(-c2ccc(F)c(F)c2)no1 (centres undefined) | 8.09% |
| CCc1nnc2c(NCCc3ccc(OC)c(OC)c3)nc3ccccc3n12 | 2.75% |
| Cc1ccc(C)c(N2CCN(C(=O)CCS(=O)(=O)c3ccc4c(c3)CC(=O)N4C)CC2)c1 | -1.19% |
| CCOc1ccc(CCNC(=O)c2c(C)oc3ncnc(N4CCOCC4)c23)cc1 | 4.81% |
| Cc1cc(C)cc(NC(=O)CN(C)S(=O)(=O)c2ccc3[nH]c4c(c3c2)CCCC4)c1 | -3.98% |
| Cc1ccc(NC(=O)CN2C(=O)COc3ccc(S(=O)(=O)N4CCCCCC4)cc32)cc1C | 15.4% |
| COc1ccc(CCNCC(=O)Nc2ccc(C)c(S(=O)(=O)N(C)C)c2)cc1 | active: 32.8% |
| CCOc1cccc(CNc2ccc(O)cc2)c1OCc1ccccc1Cl | -1.89% |
| N#C/C(=C\c1ccc(-c2ccc(F)cc2F)o1)c1nc2ccccc2[nH]1 | -15.7% |
| COc1ccc(CNC(=O)c2ccc3[nH]c(C)c(C)c3c2)c(OC)c1 | -4.39% |
| Cc1cc(C)cc(NC(=O)c2cccc(NC3=NC4CS(=O)(=O)CC4S3)c2)c1 (centres undefined) | active: 34.1% |
| COc1ccc(C(=O)Nc2ccc(OCc3cc(=O)n4ccccc4n3)cc2)cc1 | 0.822% |
| Cc1ccc(-n2nnnc2C2CCN(S(=O)(=O)c3ccc(OC(F)(F)F)cc3)CC2)cc1 | -21.2% |
| Cc1n[nH]c(C)c1S(=O)(=O)N(CC(=O)NCc1ccccc1Cl)c1ccc(C(C)C)cc1 | 19.9% |

| SMILES | inhibition |
| --- | --- |
| CCOc1ccccc1CNC(=O)CCc1cn(Cc2ccc(Cl)cc2)c2ccccc12 | 20.1% |
| CCN(C(=O)Cn1c(=O)oc2cc(S(=O)(=O)N3CCCC3)ccc21)c1cccc(C)c1 | -9.95% |
| CC(C)Oc1ccc(CNC(=O)CCn2c(=O)c3cccn3c3ccc(F)cc32)cc1 | 25.4% |
| O=C(Nc1ccc2c(c1)N(C1CCCC1)C(=O)c1ccccc1S2)c1cccc(F)c1 | -15.2% |
| COc1cccc(-n2c(=O)c3c(C)c(C(=O)N(C)C)sc3n(CC(=O)Nc3ccc(C)cc3Cl)c2=O)c1 | -4.62% |
| Cc1c(C)n(Cc2ccccc2)c2ccc(C(=O)NCCc3ccccc3Cl)cc12 | 14.1% |
| CC(C)OCCCNC(=O)CN1C(=O)CSc2ccc(S(=O)(=O)N3CCCCC3)cc21 | -6.03% |
| COc1cccc(CNC(=O)C2CCCN(c3ncnc4onc(-c5ccc(F)cc5)c34)C2)c1 (centres undefined) | 6.06% |
| O=C(NCCc1csc(-c2cccc(F)c2)n1)c1ccc(Br)o1 | 10.2% |
| Cc1ccc(Cl)cc1NCc1nnc2n1CCCCC2 | 14.3% |
| O=C1CC(c2nc(-c3cccc(Cl)c3)no2)CN1c1ccc2c(c1)OCCO2 (centres undefined) | 11.8% |
| CC(C)(C)OC(=O)N1CCCC1C(=O)NC(Cc1ccccc1)C(=O)O (stereo not drawn) (Boc-Pro-Phe-OH; configuration not given here) | active: 31.8% |
| CC(=O)N1c2ccccc2C(=O)C1N1CCN(c2ccc(F)cc2)CC1 (centres undefined) | -11.9% |
| COc1ccc(NC(=O)c2ccc(CNS(=O)(=O)c3ccc4c(c3)C(C)(C)C(=O)N4C)cc2)cc1 | -7.85% |
| CCCCN(C)C(=O)C1CCC(CNS(=O)(=O)c2ccc3c(c2)CC(C)N3C(C)=O)CC1 (centres undefined) | 11.1% |
| CCCc1nn2c(=O)cc(COc3ccc(/C=C(\C#N)C(=O)Nc4ccc(F)cc4)cc3)nc2s1 | 12% |
| CCN(CC)C(=O)Cn1c(SCCOc2ccc(Cl)cc2)nc2ccccc21 | 15.6% |
| COc1cc(CN(C(=O)c2cccc(Cl)c2)c2ccccn2)cc(OC)c1OC | -12% |
| CC(C)(C)OC(=O)NCCCCCc1nnc(SCc2ccccc2)o1 | active: 35.8% |
| CCC(C(=O)N1CCN(c2ccccc2F)CC1)n1nc(C)c2sc3ccccc3c2c1=O (centres undefined) | 8.17% |
| COc1ccc(NC(=O)CCn2nc(-c3ccccc3OC)c3c(C)cc(C)nc32)cc1 | 24.2% |
| Cc1ccccc1OCc1ccc(-c2nc(C#N)c(N3CCN(C)CC3)o2)o1 | -6.4% |
| Cc1ccc(Cl)cc1N1CCN(C(=O)c2cccn3c(=O)c4cc(Cl)ccc4nc23)CC1 | -19.6% |
| NNC(=O)c1ccc(COCC(F)(F)F)cc1 | active: 52.9% |

| SMILES | inhibition |
| --- | --- |
| CC1=C(C(=O)OCC(C)C)C(c2ccc(OCc3ccccc3)cc2)N2C(=O)CCSC2=N1 (centres undefined) | -21% |
| Cc1ccc(-n2nc(C(=O)Nc3ccc(Cl)cn3)c3c4ccccc4n(C)c3c2=O)cc1 | 22.2% |
| COc1ccc(C2C(=O)N(C3CCCCC3)CC(=O)N2CCc2ccc(OC)c(OC)c2)cc1 (centres undefined) | 19.4% |
| Cc1ccc(C)c(CN2C(=O)C3(c4ccccc42)N(c2cccc(C(F)(F)F)c2)C(=O)CS3(=O)=O)c1 (centres undefined) | 7.69% |
| CCOC(=O)c1cc(C)n(CC2CCC(C(=O)Nc3ccc(OCC)cc3)CC2)c1C (centres undefined) | 2.4% |
| COc1cc(NC(=O)c2nc3ccccc3nc2C)cc(OC)c1OC | -8.65% |
| Cc1ccc(Cl)cc1-n1ncc2c(NCCCn3ccnc3)ncnc21 | 19.8% |
| Cc1ccc2c(=O)cc(C(=O)Nc3sc4c(c3C(N)=O)CCCC4)oc2c1 | -4.56% |
| O=C(C1CCN(S(=O)(=O)Cc2ccccc2)CC1)N1CCN(c2ccc(F)cc2)CC1 | 8.89% |
| O=C(C1CCCN(S(=O)(=O)c2ccc(Br)s2)C1)N1CCN(c2ccc(F)cc2)CC1 (centres undefined) | 3.55% |
| Cc1cc(NC(=O)CSc2nc3c([nH]c4ccccc43)c(=O)n2-c2ccccc2)no1 | -28.6% |
| O=c1cc(-c2ccc(F)cc2)nc(SCc2nc(-c3cccc(Cl)c3)no2)[nH]1 | -15% |
| CC(C)(C)n1nnnc1CN1CCN2CCCC2C1 (centres undefined) | active: 36.8% |
| CCc1ccc(NC(=O)CSc2nccn2-c2cccc(C)c2C)cc1 | 19.7% |
| CCc1ccc(NC(=O)c2ccc(F)c(S(=O)(=O)N(C)C3CCCCC3)c2)cc1 | 11.9% |
| Cc1ccc(C2CC(=O)N(Cc3ccccc3)c3c2c(C)nn3-c2nc(C)cc(C)n2)cc1 (centres undefined) | 8.53% |
| CC1CN(C(=O)N2CCC(C(=O)NCCC3=CCCCC3)CC2)c2cc(Cl)ccc2O1 (centres undefined) | 16.9% |
| COc1ccc(NC(=O)CSc2nc3ccncc3[nH]2)c(OC)c1 | -4.51% |
| COc1ccc(-c2cn3nc(N4CCC(C(=O)Nc5cccc(OC)c5)CC4)sc3n2)cc1 | -7.26% |
| CCOc1ccc(Sc2cc(C(=O)NC(C)CC)c3ccccc3n2)cc1 (centres undefined) | 15.9% |
| Cc1ccc(NC(=O)N2CCN(c3ncccc3C(F)(F)F)CC2)cc1 | active: 37.4% |
| O=C(Cn1ncc2c3ccccc3n(Cc3ccc(Cl)cc3)c2c1=O)NCc1cccs1 | 4.99% |
| COc1ccc(N2CCN(S(=O)(=O)c3ccc(OC)c(-c4noc(C)n4)c3)CC2)cc1 | 21.4% |
| Cc1nc2sc(C(=O)Nc3ccc(F)cc3)c(N)c2c(-c2ccc(Br)cc2)c1C(=O)Nc1ccc(Cl)cc1 | -3.61% |

| SMILES | inhibition |
| --- | --- |
| CCc1cccc(NC(=O)c2cnc(SC)nc2-c2ccccc2)c1 | 5.82% |
| Cc1cc2nc(-c3ccc(OCc4ccc(F)cc4)cc3)cc(C(F)(F)F)n2n1 | 2.08% |
| COC(=O)c1ccc(NC(=O)CC2C(=O)N(c3ccc(F)cc3)C(=O)N2Cc2ccc(OC)cc2)cc1 (centres undefined) | -8.61% |
| CCCCOc1ccc(C(=O)NCCc2sc(-c3cccc(F)c3)nc2C)cc1 | 20.2% |
| Cc1ccc(C)c(Cn2c(=O)n(Cc3ccc4c(c3)OCO4)c(=O)c3oc4ccccc4c32)c1 | 19.6% |
| O=C(Nc1ccc(NC(=O)c2cccs2)cc1)c1cccc(Br)c1 | 3.66% |
| COc1ccccc1NC(=O)c1oc2ccccc2c1NC(=O)c1ccccc1C(F)(F)F | 4.34% |
| Cc1cccc(NC(=O)c2sc3nc4c(cc3c2N)CN(Cc2ccccc2)CC4)c1 | -2.38% |
| CCCn1c(=O)c2sccc2n2c(CCCC(=O)Nc3ccccc3OCC)nnc12 | -19.9% |
| COc1ccc(CC(=O)N2CC(=O)Nc3ccc(Br)cc3C2c2ccc(F)cc2)cc1 (centres undefined) | 13.7% |
| Cc1ccc(CN(C(=O)COc2ccc(C(C)C)cc2)C2CCS(=O)(=O)C2)o1 (centres undefined) | 4.13% |
| N#Cc1ccccc1Cn1c(=O)n(CCCCC(=O)NCc2ccc3c(c2)OCO3)c(=O)c2ccccc21 | -7.14% |
| Cc1ccc(CNC(=O)c2nc(-c3ccc(Cl)cc3)n3c2CCCCC3)cc1 | -5.82% |
| COc1ccc(CCNC2CCc3ccccc3C2)cc1 (centres undefined) | active: 81% |
| Cc1ccccc1C(=O)Nc1nnc(S(=O)(=O)N(C)Cc2ccc(Cl)cc2)s1 | -5.48% |
| COc1ccc(CNC(=O)COC(=O)c2n[nH]c3ccccc23)cc1OC | active: 30.3% |
| O=C(Cc1ccc(F)cc1)N1CCC(c2nc3c(nnn3Cc3ccc(F)cc3)c(=O)[nH]2)CC1 | 14.9% |
| COc1ccc(OCC(=O)Nc2ccc(O)c(-c3nc4ccccc4s3)c2)cc1 | 5.91% |
| O=C(NCCSCc1ccccc1Cl)C1CCN(S(=O)(=O)Cc2ccccc2)CC1 | -2.92% |
| COc1cc2c(C(=O)Nc3ccc(C)cc3Br)cn(C)c(=O)c2cc1OC | -9.1% |
| CCOC(=O)c1ccc(NC2=CC(c3ccc(O)c(OCC)c3)N(c3ccc(C(=O)OCC)cc3)C2=O)cc1 (centres undefined) | 2.74% |
| CC(C)OC(=O)C1C(=O)CC(C)(O)C(C(=O)OC(C)C)C1c1cccc(O)c1 (centres undefined) | active: 31.8% |
